The list shows a part of the results, in another mix than the full data. The list includes weakly bound sequences.
biological target: T1, GST-Aq-NF-kB (UniProt A9Y5G7); assay: protein-binding microarray (PBM); conditions: PBM: ~300 nM protein, 6 mM HEPES pH 7.8, 80 mM KCl, 0.5 mM EDTA, 0.5 mM EGTA, 6% glycerol, 35 ng/ul poly-dIdC, 1% milk, 1 h, room temperature; Ap Aiptasia and Nv Nematostella (sea anemones) / Co Capsaspora / Aq Amphimedon (sponge) / Dm Drosophila / Hu human; RHD is the Rel homology domain; high values mean tight binding; most listed sequences are background and not binding sites; double strand, one strand shown
T1 sequence: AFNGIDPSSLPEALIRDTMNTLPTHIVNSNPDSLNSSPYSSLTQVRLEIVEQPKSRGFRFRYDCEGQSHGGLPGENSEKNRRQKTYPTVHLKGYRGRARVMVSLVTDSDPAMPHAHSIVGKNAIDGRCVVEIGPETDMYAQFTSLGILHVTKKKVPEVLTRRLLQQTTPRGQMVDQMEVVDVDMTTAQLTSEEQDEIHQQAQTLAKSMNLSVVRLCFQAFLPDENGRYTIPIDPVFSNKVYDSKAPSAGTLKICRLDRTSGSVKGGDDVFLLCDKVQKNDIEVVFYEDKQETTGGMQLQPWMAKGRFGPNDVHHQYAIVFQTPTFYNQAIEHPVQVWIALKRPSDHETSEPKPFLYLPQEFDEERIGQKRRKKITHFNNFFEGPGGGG

Row | Sequence | binding signal [z-score]
1 | CCGATTAACATCAATCAGTATGATGATGTTAATCGGGTCTTGATTCGCTTGACGCTGCTG | -0.561
2 | CCGATTAACATCAGAGCGGGTTTTGATGTTAATCGGGTCTTGATTCGCTTGACGCTGCTG | 0.4
3 | CCGATTAACATCAATGCGGTGCGTGATGTTAATCGGGTCTTGATTCGCTTGACGCTGCTG | -0.089
4 | CCGATTAACATCATCGATGGCCTTGATGTTAATCGGGTCTTGATTCGCTTGACGCTGCTG | -0.55
5 | CCGATTAACATCAAGCACAGAGCTGATGTTAATCGGGTCTTGATTCGCTTGACGCTGCTG | -0.868
6 | CCGATTAACATCAAGAAATTCCATGATGTTAATCGGGTCTTGATTCGCTTGACGCTGCTG | 0.598
7 | CCGATTAACATCAAAGAAGTTGGTGATGTTAATCGGGTCTTGATTCGCTTGACGCTGCTG | -0.0463
8 | CCGATTAACATCATGTAACGGAGTGATGTTAATCGGGTCTTGATTCGCTTGACGCTGCTG | -0.183
9 | CCGATTAACATCAGTGCGCGTGTTGATGTTAATCGGGTCTTGATTCGCTTGACGCTGCTG | -0.322
10 | CCGATTAACATCACTAATCTTTTTGATGTTAATCGGGTCTTGATTCGCTTGACGCTGCTG | -0.301
11 | CCGATTAACATCACAACGTCTTATGATGTTAATCGGGTCTTGATTCGCTTGACGCTGCTG | -0.424
12 | CCGATTAACATCAGGCAAAACCCTGATGTTAATCGGGTCTTGATTCGCTTGACGCTGCTG | 3.28
13 | CCGATTAACATCAAATAGGCTCATGATGTTAATCGGGTCTTGATTCGCTTGACGCTGCTG | -0.729
14 | CCGATTAACATCAAGTCACGGGTTGATGTTAATCGGGTCTTGATTCGCTTGACGCTGCTG | -0.144
15 | CCGATTAACATCAACTAAATTCCTGATGTTAATCGGGTCTTGATTCGCTTGACGCTGCTG | -0.0369
16 | CCGATTAACATCACTGGGATTGATGATGTTAATCGGGTCTTGATTCGCTTGACGCTGCTG | 0.274
17 | CCGATTAACATCAACCGAACTTTTGATGTTAATCGGGTCTTGATTCGCTTGACGCTGCTG | -0.403
18 | CCGATTAACATCACGCCGACTTTTGATGTTAATCGGGTCTTGATTCGCTTGACGCTGCTG | -0.352
19 | CCGATTAACATCAGGGTTCAGGCTGATGTTAATCGGGTCTTGATTCGCTTGACGCTGCTG | -0.362

Row | Sequence | binding signal [z-score]
20 | CCGATTAACATCACAATGTGTGATGATGTTAATCGGGTCTTGATTCGCTTGACGCTGCTG | -0.241
21 | CCGATTAACATCATATGGGATCGTGATGTTAATCGGGTCTTGATTCGCTTGACGCTGCTG | 0.338
22 | CCGATTAACATCAAGCGATCTCCTGATGTTAATCGGGTCTTGATTCGCTTGACGCTGCTG | -0.547
23 | CCGATTAACATCAGGAATTTGCATGATGTTAATCGGGTCTTGATTCGCTTGACGCTGCTG | 0.0109
24 | CCGATTAACATCAAGCGAATGTATGATGTTAATCGGGTCTTGATTCGCTTGACGCTGCTG | -0.207
25 | CCGATTAACATCAATTTCGCGTTTGATGTTAATCGGGTCTTGATTCGCTTGACGCTGCTG | -0.589
26 | CCGATTAACATCAAACATGGGCTTGATGTTAATCGGGTCTTGATTCGCTTGACGCTGCTG | -0.392
27 | CCGATTAACATCAGGAATTTCACTGATGTTAATCGGGTCTTGATTCGCTTGACGCTGCTG | 0.723
28 | CCGATTAACATCAAGATGAACCATGATGTTAATCGGGTCTTGATTCGCTTGACGCTGCTG | -0.551
29 | CCGATTAACATCAGCGCCAGAGATGATGTTAATCGGGTCTTGATTCGCTTGACGCTGCTG | -0.455
30 | CCGATTAACATCAGGAATTTCAATGATGTTAATCGGGTCTTGATTCGCTTGACGCTGCTG | 0.414
31 | CCGATTAACATCACGCTGCACGCTGATGTTAATCGGGTCTTGATTCGCTTGACGCTGCTG | -0.241
32 | CCGATTAACATCACAGCGTGAGGTGATGTTAATCGGGTCTTGATTCGCTTGACGCTGCTG | 0.154
33 | CCGATTAACATCAAAAAATCCCGTGATGTTAATCGGGTCTTGATTCGCTTGACGCTGCTG | 6.71
34 | CCGATTAACATCAGGACACTCCCTGATGTTAATCGGGTCTTGATTCGCTTGACGCTGCTG | 5.35
35 | CCGATTAACATCATTCTTTTAGATGATGTTAATCGGGTCTTGATTCGCTTGACGCTGCTG | -0.833
36 | CCGATTAACATCATTGCTGAGAATGATGTTAATCGGGTCTTGATTCGCTTGACGCTGCTG | -0.561
37 | CCGATTAACATCACGAGGTTGACTGATGTTAATCGGGTCTTGATTCGCTTGACGCTGCTG | -0.187

From article PMC5700166
